# Results reported in PMC4336329 (PLoS ONE, 2015).
# Out of some 310,000 compounds screened, about 14,000 (4.5%) showed an effect of 50% or more. Effects have a minus sign here. The list shows a part of the results.
# Target: human ether-à-go-go-related gene (hERG) potassium channel (human, UniProt Q12809)
# Assay: primary screen, population patch clamp on CHO cells stably expressing hERG
# 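Also: peak tail current of the secondary pulse compared with the same well before compound.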
# Chain of human ether-à-go-go-related gene (hERG) potassium channel (Q12809 whole entry, looked up): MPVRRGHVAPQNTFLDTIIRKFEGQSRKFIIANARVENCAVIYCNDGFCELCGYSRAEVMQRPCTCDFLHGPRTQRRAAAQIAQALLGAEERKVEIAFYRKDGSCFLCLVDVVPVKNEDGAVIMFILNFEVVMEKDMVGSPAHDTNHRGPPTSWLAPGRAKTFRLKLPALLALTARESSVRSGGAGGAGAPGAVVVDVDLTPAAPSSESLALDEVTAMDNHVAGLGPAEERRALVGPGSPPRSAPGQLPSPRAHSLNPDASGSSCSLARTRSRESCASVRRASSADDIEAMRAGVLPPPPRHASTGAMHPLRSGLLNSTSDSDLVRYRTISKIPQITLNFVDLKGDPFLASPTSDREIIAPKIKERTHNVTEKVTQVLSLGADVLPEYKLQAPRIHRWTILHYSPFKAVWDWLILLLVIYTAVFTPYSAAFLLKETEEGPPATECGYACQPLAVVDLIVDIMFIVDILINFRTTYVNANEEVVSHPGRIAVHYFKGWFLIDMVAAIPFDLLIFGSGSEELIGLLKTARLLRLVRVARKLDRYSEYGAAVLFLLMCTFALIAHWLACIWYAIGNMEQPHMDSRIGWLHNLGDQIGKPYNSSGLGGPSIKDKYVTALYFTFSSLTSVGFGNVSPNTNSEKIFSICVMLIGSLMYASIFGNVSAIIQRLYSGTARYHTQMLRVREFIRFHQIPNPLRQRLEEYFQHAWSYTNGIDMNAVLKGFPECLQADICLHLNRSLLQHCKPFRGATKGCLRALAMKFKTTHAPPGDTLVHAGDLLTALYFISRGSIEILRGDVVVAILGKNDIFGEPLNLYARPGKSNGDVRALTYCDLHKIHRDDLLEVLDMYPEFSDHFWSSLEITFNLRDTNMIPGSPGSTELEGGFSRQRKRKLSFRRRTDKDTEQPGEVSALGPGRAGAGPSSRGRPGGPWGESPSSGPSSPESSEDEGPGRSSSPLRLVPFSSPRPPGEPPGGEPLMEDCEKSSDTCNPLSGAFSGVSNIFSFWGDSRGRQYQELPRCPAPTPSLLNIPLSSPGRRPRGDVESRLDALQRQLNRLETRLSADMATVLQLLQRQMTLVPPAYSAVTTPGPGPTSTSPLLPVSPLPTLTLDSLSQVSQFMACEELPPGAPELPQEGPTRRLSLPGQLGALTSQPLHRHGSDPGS
row,Structure (SMILES),"hERG current change (%, negative = inhibition) at 10uM"
1,O=C(CCS(=O)(=O)c1ccccc1)Nc1ncc([N+](=O)[O-])s1,17.7%
2,CCOC(=O)C1CCCN(C(=O)c2cc3ncc(Br)cn3n2)C1 (centres unmarked),3.43%
3,COCCOC(=O)C1=C(C)NC(C)=C(C(=O)OC(C)C)C1c1cccc([N+](=O)[O-])c1 (centres unmarked),-19.6%
4,CCC1(C2=NCCN2)Cc2ccccc2O1.Cl (centres unmarked),-6.18%
5,CCCCn1c(N)c(N(CC)C(=O)Cc2ccc(S(=O)(=O)N3CCOCC3)s2)c(=O)[nH]c1=O,-7.55%
6,COc1ccccc1-n1c(-c2ccoc2)nc2ccccc2c1=O,-17.1%
7,CCn1c(SCC(=O)NC)nnc1C(C)C,9.9%
8,CSc1ccccc1C(=O)NCc1ccccc1C,4.87%
9,O=C(NC1CCCCC1)C(c1ccncc1)N(CC1CCCO1)C(=O)C(F)(F)F (centres unmarked),2.44%
10,CC(C)c1ccc(/C=C2\SC(N3CCOCC3)=NC2=O)cc1,-43%
11,Cc1ccc(C2=NN(C(=O)CCC(=O)O)C(c3cn(-c4ccccc4)nc3-c3ccc(C)cc3)C2)cc1 (centres unmarked),2.78%
12,CCOc1ccc(CN(C)CC(=O)Nc2cccc(S(=O)(=O)N(C)c3ccccc3)c2)cc1.O=C(O)C(=O)O,-5.31%
13,CCOC(=O)c1c(C)c(C(=O)O)n(C)c1C,12.3%
14,O=C(N/N=C/c1ccc(Cl)cc1Cl)c1cccc(F)c1,-10.5%
15,Cc1cc(=O)[nH]c2c1c(C)nn2-c1ccccc1,10.9%
16,CCC(C)(C)NC(=O)/C=C/c1cnc2ccccc2n1,13.6%
17,COc1ccc(C(C)C)cc1S(=O)(=O)N1CCC(C(=O)NCc2cccnc2)CC1,-5.48%
18,CCC(Sc1nc2ccccc2[nH]1)C(=O)Nc1cc(C)on1 (centres unmarked),9.34%
19,COC(=O)c1ccc(OC)c(CSc2nnc(-c3ccc(C(C)(C)C)cc3)o2)c1,9.83%
20,Cc1cc2c(cc(C(=O)OC(C(=O)NCc3ccco3)C(C)C)n2C)o1 (centres unmarked),-4.4%
21,CC(=O)c1cccc(S(=O)(=O)NCCCN2CCOCC2)c1.Cl,-3.77%
22,Cc1cccc(Cn2nc(C)cc2NC(=O)Cn2cc([N+](=O)[O-])cn2)c1,-23.4%

row,Structure (SMILES),"hERG current change (%, negative = inhibition) at 10uM"
1,COCCCn1c(SCC(=O)N2CCOCC2)nc2cc(Cl)ccc2c1=O,-31.8%
2,CCc1nnc(NC(=O)CSc2ccc(-c3cccs3)nn2)s1,-0.177%
3,C=CCN(CC=C)C(=S)NC(=O)/C=C/c1ccc(OC)cc1,-3.54%
4,Cc1cc(C)cc(C(=O)NC(=S)Nc2cccnc2)c1,-32.4%
5,S=c1[nH]nc(-c2cc(-c3ccsc3)n[nH]2)n1-c1ccccc1,15.1%
6,CCCCN(C(=O)c1cc2c(s1)CCCC2)c1c(N)n(CCC)c(=O)[nH]c1=O,5.65%
7,COc1cccc2[nH]c3c(N4CCC5(CC4)OCCO5)ncnc3c12,-0.305%
8,COC(=O)[C@H](NC(=O)c1cc(-c2ccccc2)nc2ccccc12)c1ccccc1,15%
9,CC(C)CC(=O)O/N=C1\C(=O)N(Cc2ccc(Cl)cc2)c2ccc([N+](=O)[O-])cc21,-36.1%
10,CCCCc1ccc(-c2csc(/C(C#N)=C/c3ccc(C)o3)n2)cc1,15.9%
11,CCOc1ccc(OCC(=O)Nc2ccccc2C(F)(F)F)cc1,0.3%
12,COc1cccc(CNC(=O)C2CCCN(c3nn4c(=O)cc(C)nc4s3)C2)c1 (centres unmarked),-11.9%
13,Cc1cc(C)cc(NC(=S)N(Cc2ccc(Br)cc2)Cc2ccc(C(=O)O)cc2)c1,13.7%
14,O=C(Nc1ccc(C(=O)NCCCN2CCN(c3ccc(F)cc3)CC2)cc1)C1=CSCCO1,-54%
15,CCOC(=O)CN=C(NS(=O)(=O)c1ccc(Cl)cc1)c1ccccc1,-6.58%
16,Cc1ccc(C)c2[nH]c(=O)c(C(c3nnnn3C3CCCC3)N3CCOCC3)cc12 (centres unmarked),-13.7%
17,CSc1ccc(CN2C(=O)NC3(CCCCCCC3)C2=O)cc1,-4.06%
18,O=C(O)c1cn(-c2ccccc2)c(=O)c2ccccc12,9.72%
19,CCN(CC)c1ccc(/C=C/C(=O)c2cccnc2)cc1,-1.37%
20,Cn1c2c(c(=O)n(C)c1=O)C(c1ccccc1F)C(C#N)=C(N)O2 (centres unmarked),10.4%
21,COc1ccc(Nc2nc(NCc3ccco3)nc(N/N=C/c3ccccc3)n2)cc1,-0.0402%
22,CCOC(=O)c1c(C)nc2sc(C(=O)Nc3ccc(C(C)=O)cc3)c(N)c2c1-c1ccc(OC)cc1,4.74%

row,Structure (SMILES),"hERG current change (%, negative = inhibition) at 10uM"
1,Cl.c1ccc(-c2nc(NCCCn3ccnc3)c3oc4ccccc4c3n2)cc1,-4.89%
2,CCCSCC(=O)Nc1ncc2c(n1)-c1ccccc1CC2,-13.5%
3,CCC(C(=O)NC1CCCC1)N(C(=O)Cn1nnc(-c2ccc(C)o2)n1)C(C)(C)C (centres unmarked),-19.6%
4,O=C1CCC(C(=O)OCc2cc(Cl)ccc2OC(F)F)N1 (centres unmarked),0.725%
5,COc1cc(CN2CC(=O)N(c3cc(Cl)ccc3C)C2=S)cc(OC)c1OC,20.7%
6,COc1ccc(-n2c(SCC(=O)Nc3ccc4c(c3)OCO4)nnc2C(C)N2CCCCC2)cc1 (centres unmarked),-43.5%
7,COc1ccc(NC2CCCN(C(=O)c3ccc(C(C)=O)s3)C2)cc1 (centres unmarked),16.1%
8,CCOc1ccccc1NC(=O)NC1CCCCCCC1,13.6%
9,N#CCCN(C(=O)COc1ccc(C#N)cc1)c1ccc(F)cc1,-27.7%
10,CN1CCN(C2=NC(=O)/C(=C/c3ccccc3OS(=O)(=O)c3ccccc3)S2)CC1,-76.1%
11,COc1cc(OC)c(N2CC(C(=O)Nc3cc(Cl)ccc3N3CCOCC3)CC2=O)cc1Cl (centres unmarked),-21.9%
12,O=C(O)C1=C[C@H](c2csc3ccccc23)C[C@H](OCCCCO)O1,8.62%
13,Cn1cccc1-c1nc2ccccc2[nH]1,-5.21%
14,CCCC[n+]1c2ccccc2cc2ccccc21.[I-],-32.9%
15,Cc1ccc(C)c(NS(=O)(=O)c2cc(C(=O)N3CCc4ccccc4C3)ccc2Cl)c1,8.24%
16,O=C(N/N=C/c1ccc(O)cc1)c1cc(C2CC2)[nH]n1,-4.89%
17,Cn1nc(C(=O)Nc2cccc(Cl)c2)cc1C(=O)Nc1cccc(Cl)c1,15.8%
18,O=C1[C@@H]2C(c3cccnc3)=NO[C@@H]2C(=O)N1c1ccc2ccccc2c1,21.1%
19,CC(C)Cc1nnc(NC(=O)CCC(=O)N2CCN(c3ccccc3)CC2)s1,13.2%
20,O=C(NC1CCN(Cc2ccccc2)CC1)c1ccc(Oc2cc(Cl)cc(Cl)c2)o1,-6.95%
21,CC1(C)CC(=O)C2=C(C1)N1C(=C(C#N)C2c2ccc(Cl)cc2)N=C(N)c2ccccc21 (centres unmarked),-7.52%
22,CC(C)NC(=O)C(c1ccc(F)cc1)N(C(=O)CCC(=O)Nc1ccccn1)c1cccc(F)c1 (centres unmarked),6.37%

row,Structure (SMILES),"hERG current change (%, negative = inhibition) at 10uM"
1,O=C(C[n+]1cccc(CNC(=O)c2ccc(OC(F)F)cc2)c1)Nc1ccccc1Cl.[Cl-],-10.3%
2,CCCCNC(=O)CCC(=O)Nc1ccc2nc(N3CCC(C)CC3)cc(C)c2c1,-27.9%
3,C=CCNC(=O)C(=O)NN=C1CCN(C)CC1,0.576%
4,CC(=O)Nc1ccc(N=c2cc([N+](=O)[O-])cc(Cl)n2O)cc1,5.97%
5,O=C(CN(Cc1ccco1)C(=O)CCC(=O)Nc1ccccn1)NCCc1ccccc1,-6.94%
6,COc1ccc(NC(=O)c2ccc3c(=O)n(-c4ccc(OC)cc4OC)c(=S)[nH]c3c2)c(OC)c1,0.523%
7,C#CCSc1n[nH]c(-c2ccco2)n1,16.1%
8,Cc1ccc(N2C(=O)c3ccc(N)cc3C2=O)cc1,13.2%
9,O=c1nccc(SCc2ccc(Cl)cc2Cl)[nH]1,12.7%
10,CC(C)CNc1nc2c(c(=O)n(C)c(=O)n2C)n1Cc1cccc(Br)c1,0.0145%
11,NC(=O)C1CCN(C(=S)NCCc2ccccc2)CC1,19.7%
12,O=C(CSc1nnc(-c2ccncc2)n1CCc1ccccc1)NCc1ccccc1,-46.1%
13,CC(C)(C)c1csc(NC(=O)C2COc3ccccc3O2)n1 (centres unmarked),-47.6%
14,Cc1ccc(C(=O)O)cc1-c1ccc(/C=C2/NC(=O)N(c3ccccc3)C2=O)o1,4.44%
15,COc1ccc(NC(=O)C2CC(=O)N(Cc3ccco3)C2)cc1Cl (centres unmarked),-4.14%
16,COc1cc(NC(=S)NCCc2c[nH]c3ccccc23)c(OC)cc1Cl,10.1%
17,Cc1cc(C)c(/C=N/NC(=O)c2nnn(-c3nonc3N)c2CN2CCC(C)CC2)c(C)c1,18.8%
18,CN1CCN(C(=O)C2=C[C@@H](c3ccc(C(F)(F)F)cc3)C[C@@H](OCCCCO)O2)CC1,-20.2%
19,CC(C)C(=O)Nc1c2c(nc3c1CCC3)CCCC2,5.23%
20,O=C(c1ccc(-n2cnnn2)cc1)N1CCCCC1,-24.1%
